In article PMC12274619:
Results are given in words; binding and its absence hold for the method and conditions named. Binding seen in cells or lysates may run through a third protein. Some entries that bind do so weakly or less than the wild type. For some of these results: Tags and fused reporters may be left off the sequences shown.

Sequences of proteins named here, by UniProt entry; tags and fusion partners are left off. A change or cut given only in a name is not applied to a line headed by its entry. Residues count along the entry.
UniProt A2AJ88: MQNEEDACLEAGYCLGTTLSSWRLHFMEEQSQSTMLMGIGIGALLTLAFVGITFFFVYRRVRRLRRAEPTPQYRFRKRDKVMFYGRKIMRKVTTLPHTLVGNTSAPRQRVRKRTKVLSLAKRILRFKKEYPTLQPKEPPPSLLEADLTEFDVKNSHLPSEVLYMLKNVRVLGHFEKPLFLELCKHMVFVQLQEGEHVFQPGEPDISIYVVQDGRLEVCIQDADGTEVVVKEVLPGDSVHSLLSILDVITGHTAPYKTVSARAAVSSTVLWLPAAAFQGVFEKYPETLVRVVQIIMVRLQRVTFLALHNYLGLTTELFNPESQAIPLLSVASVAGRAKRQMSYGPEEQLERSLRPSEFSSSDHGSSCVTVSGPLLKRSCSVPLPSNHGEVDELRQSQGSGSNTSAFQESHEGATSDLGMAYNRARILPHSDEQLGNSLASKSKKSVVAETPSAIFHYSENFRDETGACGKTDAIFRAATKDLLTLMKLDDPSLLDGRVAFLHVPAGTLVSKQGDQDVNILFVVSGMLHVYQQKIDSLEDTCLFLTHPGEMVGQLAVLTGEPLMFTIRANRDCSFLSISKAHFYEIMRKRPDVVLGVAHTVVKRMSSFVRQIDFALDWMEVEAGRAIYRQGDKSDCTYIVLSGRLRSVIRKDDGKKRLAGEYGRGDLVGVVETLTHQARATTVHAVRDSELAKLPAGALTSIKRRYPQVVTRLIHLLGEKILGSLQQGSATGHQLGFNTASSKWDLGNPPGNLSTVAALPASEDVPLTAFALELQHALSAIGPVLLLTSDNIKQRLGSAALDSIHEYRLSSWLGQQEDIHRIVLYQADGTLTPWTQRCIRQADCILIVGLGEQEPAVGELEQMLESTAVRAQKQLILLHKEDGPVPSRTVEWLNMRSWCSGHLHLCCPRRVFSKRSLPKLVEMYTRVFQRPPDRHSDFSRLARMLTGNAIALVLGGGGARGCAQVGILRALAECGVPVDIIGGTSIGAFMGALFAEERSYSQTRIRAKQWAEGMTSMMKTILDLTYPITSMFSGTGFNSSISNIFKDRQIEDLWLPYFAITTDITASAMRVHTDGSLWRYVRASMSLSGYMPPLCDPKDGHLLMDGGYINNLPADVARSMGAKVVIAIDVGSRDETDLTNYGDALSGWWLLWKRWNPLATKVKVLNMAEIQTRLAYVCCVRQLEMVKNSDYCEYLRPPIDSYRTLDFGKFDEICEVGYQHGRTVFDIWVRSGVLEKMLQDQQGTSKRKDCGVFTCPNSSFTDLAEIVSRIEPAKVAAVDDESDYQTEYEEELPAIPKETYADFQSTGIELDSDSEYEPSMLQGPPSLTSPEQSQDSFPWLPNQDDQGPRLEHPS
HA-PNPLA7 N-terminal region (aa1-941): residues 1-941 of A2AJ88
HA-PNPLA7 truncation aa36-1352: residues 36-1352 of A2AJ88
HA-PNPLA7 C-terminal region (aa942-1352): residues 942-1352 of A2AJ88

Columns and labels:
[1] = target: T1, endogenous Parkin (mouse (endogenous in iWAT)) (UniProt Q9WVS6); test: co-IP; iWAT total lysates of Pnpla7^Tg mice immunoprecipitated with anti-Parkin or anti-Flag antibodies overnight at 4 °C, protein A/G beads; IP buffer 50 mM Tris-HCl pH 7.5, 1 mM EGTA, 1 mM EDTA, 1% Triton X-100, 150 mM NaCl, 2 mM DTT; immunoblot
T1 sequence: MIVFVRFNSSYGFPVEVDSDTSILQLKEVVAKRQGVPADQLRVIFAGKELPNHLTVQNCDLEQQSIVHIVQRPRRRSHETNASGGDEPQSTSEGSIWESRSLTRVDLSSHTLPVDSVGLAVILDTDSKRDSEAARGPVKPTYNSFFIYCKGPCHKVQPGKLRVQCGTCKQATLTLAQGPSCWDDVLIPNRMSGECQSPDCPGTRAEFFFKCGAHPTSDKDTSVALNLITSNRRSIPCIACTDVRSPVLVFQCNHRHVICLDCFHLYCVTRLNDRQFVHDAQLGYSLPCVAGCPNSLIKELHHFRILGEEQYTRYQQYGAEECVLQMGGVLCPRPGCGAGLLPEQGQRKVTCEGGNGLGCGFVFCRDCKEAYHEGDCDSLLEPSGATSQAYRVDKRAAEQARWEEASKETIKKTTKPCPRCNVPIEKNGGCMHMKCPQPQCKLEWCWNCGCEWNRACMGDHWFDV

Flag-Parkin = target: T2, Flag-Parkin (UniProt Q9WVS6); test: co-IP; HEK293T cells transfected with Flag-Parkin and HA-PNPLA7 truncations for 48 h; total lysates immunoprecipitated with anti-HA or anti-Flag antibodies; IP buffer 50 mM Tris-HCl pH 7.5, 1% Triton X-100, 150 mM NaCl; immunoblot
T2 sequence: T1 sequence

[2] = target: T1, endogenous Parkin (mouse (endogenous in iWAT)); test: co-IP; iWAT lysate of wild-type mice, endogenous proteins; mice injected with saline or CL 316,243 (1 mg/kg) for 30 min; IP buffer; immunoblot
[3] = target: T1, endogenous Parkin (mouse (endogenous in iWAT)); test: co-IP; lysate of in vitro differentiated inguinal adipocytes of wild-type mice, endogenous proteins; with or without CL 316,243 (1 μM) for 30 min; IP buffer; immunoblot

| binding (Flag-Parkin) | Substance | further results |
| --- | --- | --- |
| – | Flag-PNPLA7 (adipose-specific transgene of Pnpla7^Tg mice) (from UniProt A2AJ88 1-1352) | binding [1]: binds |
| binds | HA-PNPLA7 C-terminal region (aa942-1352) (from UniProt A2AJ88-1 942-1352) (domain or fragment) | – |
| no binding | HA-PNPLA7 N-terminal region (aa1-941) (from UniProt A2AJ88-1 1-941) (domain or fragment) | – |
| binds | HA-PNPLA7 full length (aa1-1352) (from UniProt A2AJ88-1 1-1352) | – |
| binds | HA-PNPLA7 truncation aa36-1352 (from UniProt A2AJ88-1 36-1352) (domain or fragment) | – |
| – | endogenous PNPLA7 (from UniProt A2AJ88 1-1352) | binding [2]: binds; binding [3]: binds |
